# Over roughly 2,900 compounds, “IRF Lucia reporter activity, fold change vs agonist alone” has its median near 0.9; the highest 2% begin near 2.8. The list shows a part of the results.
# Assays:
# RAW-Dual [1] = assay: IRF Lucia reporter activity, fold change vs agonist alone; cytotoxicity flag (confluency mask): not cytotoxic; higher = enhanced IRF activity
# Summary of the method: (§1)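 RAW-Dual macrophages were seeded in DMEM at 50,000 cells/well in 384-well plates, given 50 nL of library stock by pin tool, and given a PRR agonist 1 h later. Plates were held at 37 °C, 5% CO2 for 20 hours, after which supernatant was read for IRF by QuantiLuc luminescence and for NF-κB by QuantiBlue absorbance at 620 nm. Reporter activity is expressed as fold change over wells that received agonist alone. A well was called cytotoxic when IncuCyte confluency fell below 70% of agonist controls in both mask sets.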
# RAW-Dual [2] = assay: IRF Lucia reporter activity, fold change vs agonist alone; higher = enhanced IRF activity; settings: library stock concentration (final ~1000-fold dilution): 10 mM, agonist: MPLA (TLR4) […]
# Summary of the method: as §1
# RAW-Dual [3] = assay: IRF Lucia reporter activity, fold change vs agonist alone; cytotoxicity flag (confluency mask): cytotoxic (confluency <70% of control); higher = enhanced IRF activity
# Summary of the method: as §1
# [4] = agonist: 3'3'-cGAMP (STING) 10 ug/mL
# [5] = cytotoxicity flag (confluency mask): not cytotoxic
# [6] = cytotoxicity flag (confluency mask): cytotoxic (confluency <70% of control)
compound,measurement,setting,value
CCN1C(=O)CNc2ncc(-c3ccc(-c4nc[nH]n4)nc3C)nc21 (library stock concentration (final ~1000-fold dilution): 10 mM),IRF Lucia reporter activity,RAW-Dual [1]; [4],0.131
same,IRF Lucia reporter activity,RAW-Dual [1]; agonist: LPS (TLR4) 0.1 ug/mL,0.555
COc1ccc(CNC(=O)CCl)cc1OC,IRF Lucia reporter activity,RAW-Dual [2]; [5],0.949
COc1ccc(CNC(=O)CCl)cc1OC (library stock concentration (final ~1000-fold dilution): 10 mM),IRF Lucia reporter activity,RAW-Dual [1]; [4],0.804
same,IRF Lucia reporter activity,RAW-Dual [1]; agonist: LPS (TLR4) 0.1 ug/mL,1.06
COc1cc2oc(=O)ccc2c(OC)c1CC(O)C(C)(C)O (stereo not drawn) (library stock concentration (final ~1000-fold dilution): 10 mM),IRF Lucia reporter activity,RAW-Dual [1]; [4],1.14
same,IRF Lucia reporter activity,RAW-Dual [1]; agonist: LPS (TLR4) 0.1 ug/mL,0.809
COc1cc(NC(=O)c2ccc(-c3ccc(Cl)cc3)o2)cc(OC)c1,IRF Lucia reporter activity,RAW-Dual [2]; [5],0.886
COc1cc(NC(=O)c2ccc(-c3ccc(Cl)cc3)o2)cc(OC)c1 (library stock concentration (final ~1000-fold dilution): 10 mM),IRF Lucia reporter activity,RAW-Dual [1]; [4],0.692
same,IRF Lucia reporter activity,RAW-Dual [1]; agonist: LPS (TLR4) 0.1 ug/mL,1.01
Cl.Cl.OC(CN1CCN(c2cccc(Cl)c2)CC1)C(c1ccccc1)c1ccccc1 (stereo not drawn),IRF Lucia reporter activity,RAW-Dual [2]; [5],0.984
Cl.Cl.OC(CN1CCN(c2cccc(Cl)c2)CC1)C(c1ccccc1)c1ccccc1 (stereo not drawn) (library stock concentration (final ~1000-fold dilution): 10 mM),IRF Lucia reporter activity,RAW-Dual [1]; [4],0.634
same,IRF Lucia reporter activity,RAW-Dual [1]; agonist: LPS (TLR4) 0.1 ug/mL,0.943
COc1cc2nccc(Oc3ccc(NC(=O)Nc4ccc(F)cc4F)c(F)c3)c2cc1OC,IRF Lucia reporter activity,RAW-Dual [2]; [6],1.23
COc1cc2nccc(Oc3ccc(NC(=O)Nc4ccc(F)cc4F)c(F)c3)c2cc1OC (library stock concentration (final ~1000-fold dilution): 10 mM),IRF Lucia reporter activity,RAW-Dual [3]; [4],1.02
same,IRF Lucia reporter activity,RAW-Dual [3]; agonist: LPS (TLR4) 0.1 ug/mL,0.826
CNC(=C[N+](=O)[O-])NCCSCc1csc(CN(C)C)n1 (library stock concentration (final ~1000-fold dilution): 10 mM),IRF Lucia reporter activity,RAW-Dual [1]; [4],1.03
same,IRF Lucia reporter activity,RAW-Dual [1]; agonist: LPS (TLR4) 0.1 ug/mL,1.02
CNC(=C[N+](=O)[O-])NCCSCc1csc(CN(C)C)n1,IRF Lucia reporter activity,RAW-Dual [2]; [5],0.93
Cc1cc(Nc2cc(Cl)nc(Oc3ccc([N+](=O)[O-])cc3)n2)n[nH]1 (library stock concentration (final ~1000-fold dilution): 10 mM),IRF Lucia reporter activity,RAW-Dual [1]; [4],0.161
same,IRF Lucia reporter activity,RAW-Dual [1]; agonist: LPS (TLR4) 0.1 ug/mL,1.38
C=CC(=O)Nc1cccc(Nc2nc(Nc3ccc(NC4CN(CCF)C4)cc3OC)ncc2C(F)(F)F)c1 (library stock concentration (final ~1000-fold dilution): 10 mM),IRF Lucia reporter activity,RAW-Dual [1]; [4],0.0185
same,IRF Lucia reporter activity,RAW-Dual [1]; agonist: LPS (TLR4) 0.1 ug/mL,0.146
C=CC(=O)Nc1cccc(Nc2nc(Nc3ccc(NC4CN(CCF)C4)cc3OC)ncc2C(F)(F)F)c1,IRF Lucia reporter activity,RAW-Dual [2]; [5],0.176
O=C(O)CC(O)CC(O)C=Cc1c(C2CC2)nc2ccccc2c1-c1ccc(F)cc1 (stereo not drawn) (library stock concentration (final ~1000-fold dilution): 10 mM),IRF Lucia reporter activity,RAW-Dual [1]; [4],0.387
same,IRF Lucia reporter activity,RAW-Dual [1]; agonist: LPS (TLR4) 0.1 ug/mL,0.712
O=C(O)CC(O)CC(O)C=Cc1c(C2CC2)nc2ccccc2c1-c1ccc(F)cc1 (stereo not drawn),IRF Lucia reporter activity,RAW-Dual [2]; [5],0.442
CN1C2=C3N=c4ccccc4=C3CCN2C(=O)c2ccccc21 (library stock concentration (final ~1000-fold dilution): 10 mM),IRF Lucia reporter activity,RAW-Dual [1]; [4],1.42
same,IRF Lucia reporter activity,RAW-Dual [1]; agonist: LPS (TLR4) 0.1 ug/mL,1.48
CN1C2=C3N=c4ccccc4=C3CCN2C(=O)c2ccccc21,IRF Lucia reporter activity,RAW-Dual [2]; [5],1.19
CS(=O)(=O)Nc1ccc([N+](=O)[O-])cc1Oc1ccccc1 (library stock concentration (final ~1000-fold dilution): 10 mM),IRF Lucia reporter activity,RAW-Dual [1]; [4],1.1
same,IRF Lucia reporter activity,RAW-Dual [1]; agonist: LPS (TLR4) 0.1 ug/mL,0.972
CS(=O)(=O)Nc1ccc([N+](=O)[O-])cc1Oc1ccccc1,IRF Lucia reporter activity,RAW-Dual [2]; [5],0.957
N#CN=C(NCCCCCCOc1ccc(Cl)cc1)Nc1ccncc1 (library stock concentration (final ~1000-fold dilution): 10 mM),IRF Lucia reporter activity,RAW-Dual [1]; [4],1.12
same,IRF Lucia reporter activity,RAW-Dual [1]; agonist: LPS (TLR4) 0.1 ug/mL,0.935
O=C(O)/C(S)=C/c1c[nH]c2ccc(F)cc12,IRF Lucia reporter activity,RAW-Dual [2]; [5],0.961
O=C(O)/C(S)=C/c1c[nH]c2ccc(F)cc12 (library stock concentration (final ~1000-fold dilution): 10 mM),IRF Lucia reporter activity,RAW-Dual [1]; [4],0.447
same,IRF Lucia reporter activity,RAW-Dual [1]; agonist: LPS (TLR4) 0.1 ug/mL,0.99
Cl.Cl.Cl.Cl.Nc1cc(N)c(N)cc1N (library stock concentration (final ~1000-fold dilution): 10 mM),IRF Lucia reporter activity,RAW-Dual [3]; [4],0.0145
same,IRF Lucia reporter activity,RAW-Dual [3]; agonist: LPS (TLR4) 0.1 ug/mL,0.0149
Cl.Cl.Cl.Cl.Nc1cc(N)c(N)cc1N,IRF Lucia reporter activity,RAW-Dual [2]; [6],0.0155
CCNC(=O)c1noc(-c2cc(Cl)c(O)cc2O)c1-c1ccc(OC)cc1 (library stock concentration (final ~1000-fold dilution): 10 mM),IRF Lucia reporter activity,RAW-Dual [1]; [4],0.782
same,IRF Lucia reporter activity,RAW-Dual [1]; agonist: LPS (TLR4) 0.1 ug/mL,0.827

# Reference: the supplement of paper PMC10037445
